# The whole screen tested about 310,000 compounds, of which about 2,200 (0.71%) showed an effect of 50% or more. The effect is printed as a negative number. This is one part of the list.
# Target: human ether-à-go-go-related gene (hERG) potassium channel (human, UniProt Q12809)
# Assay: primary screen, population patch clamp on CHO cells stably expressing hERG
# Sequence of human ether-à-go-go-related gene (hERG) potassium channel (Q12809 whole entry, looked up): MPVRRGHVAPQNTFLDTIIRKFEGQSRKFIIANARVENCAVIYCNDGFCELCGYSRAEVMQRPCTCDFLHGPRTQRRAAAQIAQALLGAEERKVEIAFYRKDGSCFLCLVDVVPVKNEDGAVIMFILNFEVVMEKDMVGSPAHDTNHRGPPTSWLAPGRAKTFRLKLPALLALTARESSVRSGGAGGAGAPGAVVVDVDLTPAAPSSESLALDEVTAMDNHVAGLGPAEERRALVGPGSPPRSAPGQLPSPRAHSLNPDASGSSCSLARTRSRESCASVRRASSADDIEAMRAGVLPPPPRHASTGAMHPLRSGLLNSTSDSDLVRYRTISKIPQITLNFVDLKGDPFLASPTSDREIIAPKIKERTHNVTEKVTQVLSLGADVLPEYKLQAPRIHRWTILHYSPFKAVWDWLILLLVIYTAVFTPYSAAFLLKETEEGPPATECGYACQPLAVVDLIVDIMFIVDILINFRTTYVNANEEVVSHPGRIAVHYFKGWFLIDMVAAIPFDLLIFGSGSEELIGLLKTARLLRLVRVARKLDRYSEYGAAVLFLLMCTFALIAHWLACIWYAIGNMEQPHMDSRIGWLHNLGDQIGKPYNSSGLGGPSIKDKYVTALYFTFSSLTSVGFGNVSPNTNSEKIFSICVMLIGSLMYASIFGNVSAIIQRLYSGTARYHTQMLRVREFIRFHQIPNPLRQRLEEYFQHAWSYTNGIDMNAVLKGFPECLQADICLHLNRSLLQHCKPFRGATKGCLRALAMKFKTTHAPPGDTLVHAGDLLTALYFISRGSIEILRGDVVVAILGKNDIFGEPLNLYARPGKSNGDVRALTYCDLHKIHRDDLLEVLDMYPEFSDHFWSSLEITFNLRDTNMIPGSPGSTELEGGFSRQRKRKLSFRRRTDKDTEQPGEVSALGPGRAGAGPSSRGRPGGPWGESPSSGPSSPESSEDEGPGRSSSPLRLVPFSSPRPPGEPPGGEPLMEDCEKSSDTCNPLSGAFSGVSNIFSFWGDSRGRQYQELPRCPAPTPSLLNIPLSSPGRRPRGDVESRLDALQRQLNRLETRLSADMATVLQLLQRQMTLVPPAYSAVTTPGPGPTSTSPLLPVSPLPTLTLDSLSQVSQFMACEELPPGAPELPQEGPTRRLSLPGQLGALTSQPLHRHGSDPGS
row,Structure (SMILES),"hERG current change (%, negative = inhibition) at 1uM [%]"
1,CCc1cc(CC)c(/C=N/NC(N)=O)c(CC)c1,3.86
2,O=c1c2ccccc2nc(-c2ccccc2)n1CCCN1CCOCC1,4.9
3,Cc1ccc(CN2C(=O)CSC(C)C2=O)cc1 (stereo not shown),12.4
4,CC(=O)c1cn(C(=O)c2ccc(Cl)cc2)c2ccccc12,14.2
5,COC(=O)CCN(C(=O)c1ccc(N2CCCC2)c([N+](=O)[O-])c1)c1ccccn1,11.3
6,Cc1ccc(C)c(NC(=O)CCc2ccc(C)o2)c1,11.8
7,CC(C)CCNc1nc(N)c([N+](=O)[O-])c(NCCO)n1,15.4
8,Cc1cc2oc3ccc(NCCC4CCCN4C)cc3c(=O)c2cc1C (stereo not shown),12.5
9,O=C(c1ccccn1)N1CCN(S(=O)(=O)c2ccc3ccccc3c2)CC1,3.18
10,Cc1c(O)nc(SCC(=O)Nc2ccc3c4c(cccc24)CC3)n(-c2ccccc2)c1=O,14.9
11,O=C(CSc1n[nH]c(-c2ccccn2)n1)Nc1ccccc1F,11
12,Cc1onc(-c2ccccc2Cl)c1C(=O)OCC(=O)c1ccc[nH]1,2.49
13,C=C(C)CSc1nc2sc3c(c2c(=O)n1-c1ccc(OC)cc1)CCN(C)C3,9.61
14,O=C(CSc1nc(O)cc(=O)[nH]1)N1c2ccccc2CCc2ccccc21,7.15
15,O=C1C2C(c3ccccc3)CC=CC2[C@H](c2ccoc2)N1Cc1ccccc1 (stereo partly shown),8.12
16,COc1ccc(/C=C/C(=O)NC2CCCCC2C)cc1 (stereo not shown),14.9
17,COc1ccc(CCC(=O)NNC(=O)c2cc(Cl)ccc2OC)cc1,2.27
18,Cc1cc(C)c2c(c1)/C(=N/NC(=O)c1cc(C)oc1C)CCC2,10.2
19,CCCCCNC(=O)c1cn(CC)c2cc(N3CCN(C)CC3)c(F)cc2c1=O,0.584
20,Cn1c(-c2ccc3c(c2)OCO3)cnc1NC(=O)CCC(=O)NCCc1ccccc1,7.5
21,O=C(NCc1ccccc1OC(F)(F)F)C1CCC(=O)N(C2CC2)C1 (stereo not shown),4.78
22,O=C(Nc1ccc(S(=O)(=O)NC2=NCCCCC2)cc1)c1ccc(C(F)(F)F)cc1,-3.67

row,Structure (SMILES),"hERG current change (%, negative = inhibition) at 1uM [%]"
1,Cc1ccc(-n2nnnc2SCC(=O)Nc2ccc3c(c2)COC3=O)cc1C,12
2,CCOC(=O)c1nn(-c2ccccc2)c(=O)cc1OCC(=O)Nc1ccccc1OCC,-1.83
3,COc1cc(C2CC(=O)c3c([nH]c(C(=O)OCCOC(C)C)c3C)C2)cc(OC)c1OC (stereo not shown),4.87
4,CC1CC2=C(CC1/C=N/NC(N)=S)C(C)(C)CCC2 (stereo not shown),-7.01
5,Cc1cc(OCC(=O)NC(Cc2ccc(Cl)cc2)C(=O)O)c2c3c(c(=O)oc2c1)CCC3 (stereo not shown),13.8
6,CCC(C)CCN1C(N(C)C)=NC[C@@H]1Cc1ccccc1 (stereo partly shown),3.7
7,O=C(CCCN1C(=O)/C(=C\c2cccs2)SC1=S)Nc1ccc(C(=O)O)cc1,9.15
8,N#CC1=C2SCN(c3ccc(F)cc3)CN2C(=O)CC1c1cccc(F)c1 (stereo not shown),8.47
9,Cc1ccc(N2C(=O)c3ccc(C(=O)N4CCOCC4)cc3C2=O)cc1C,9.52
10,C#CCOCCOCCOCCNc1nc(N2CCN(C(=O)[C@H]([C@@H](C)CC)n3cc(CCC[NH+]=C(N)N)nn3)CC2)nc(N2CCN(C(=O)[C@H](C)n3cc(CCC[NH+]=C(N)N)nn3)CC2)n1.[Cl-],15.3
11,COc1ccc(/C=N/NC(=O)C2C(C=C(Cl)Cl)C2(C)C)c(OC)c1 (stereo not shown),-2.05
12,c1ccc(Nc2ccccn2)cc1,12
13,NC(=O)CSc1nnc2n(N)c(=O)c3ccccc3n12,8.42
14,CCC1CCCCN1CCNC(=O)CNS(=O)(=O)c1ccc2nc(C)sc2c1 (stereo not shown),17.4
15,O=C1OC(c2ccc3c(c2)OCO3)N(C(=O)c2ccc(Cl)c(Cl)c2)c2ccccc21 (stereo not shown),-11.4
16,Cn1ccnc1/C(=N\NC(=O)c1ccccc1)c1cccc([N+](=O)[O-])c1,-14
17,COc1ccc(CN(CCNC(=O)CCCCC(=O)NCCN(Cc2ccc(OC)cc2)C(C)C)C(C)C)cc1.Cl,5.4
18,C=CCOCC(O)Cn1c(N2CCCC2)nc2c1c(=O)n(C)c(=O)n2C (stereo not shown),15.2
19,O=c1c2ccccc2[nH]c(=S)n1-c1ccc2c(c1)OCO2,16.3
20,O=C(Nc1nnc(-c2ccccc2)o1)c1cc(Cl)sc1Cl,11.1
21,COC(=O)c1ccccc1NC(=O)N1CCN(S(=O)(=O)c2ccc(Cl)cc2)CC1,8.85
22,Cc1ccc(N2NC(=O)/C(=C/c3ccc(-c4ccc(Cl)c(C(=O)O)c4)o3)C2=O)cc1C,6.3

row,Structure (SMILES),"hERG current change (%, negative = inhibition) at 1uM [%]"
1,Cc1ccc(OCCCC(=O)Nc2ccc(S(N)(=O)=O)cc2)cc1,9.66
2,CCOC(=O)N1CCc2c(sc3c2c(=O)n(Cc2ccccc2)c(=O)n3CC(=O)NCC2CCCO2)C1 (stereo not shown),16.6
3,O=C(NC(=S)NCc1cccnc1)c1cc2ccccc2o1,13.9
4,Cc1nc2c3cc(Cl)ccc3n(CCN3CCOCC3)c2s1,-5.57
5,Brc1ccc(COc2ncnc3ccccc23)cc1,8.13
6,O=C(Nc1scc(-c2ccc(Br)cc2)c1C(=O)O)c1ccccc1F,23.3
7,COc1ccc(-c2cc(C(=O)Nc3c(C)nn(Cc4ccccc4)c3C)no2)cc1,6.71
8,Clc1ccc(NNc2ccnc3cc(Cl)ccc23)cc1,7.36
9,CCOC(=O)c1c(NC(=O)Cn2nc(C(F)(F)F)cc2C)sc2c1CCC2,-8.44
10,CN1CCN(Cc2c(O)ccc3c2oc(=O)c2ccccc23)CC1,8.61
11,Cc1c(CNCCc2ccccc2Cl)c(C(=O)O)c(C)n1-c1ccccc1,12.6
12,Cc1ccc(S(=O)(=O)Nc2ccc3c(c2)nc(CN2CCCC2)n3C)cc1,-9.18
13,CC(=NCCc1c(C)[nH]c2ccc(C)cc12)C1=C(O)CC(c2ccccc2)CC1=O (stereo not shown),14.9
14,Cc1ccc(N=Cc2sc(O)c3ccccc23)c(C)c1,24.8
15,CC1CCCCN1Cc1ccc(N(C)C)cc1 (stereo not shown),11.4
16,COc1ccc(NC(=O)CSc2nnnn2-c2ccccc2F)cc1,10.9
17,COc1ccccc1-c1cc(C(=O)NCc2ccccc2)no1,-0.335
18,CCOC(=O)c1sc(NC(=O)C2CC(=O)N(c3ccc(C)cc3)C2)nc1C (stereo not shown),3.68
19,Nc1n[nH]c2c1C1(CCCC1)Cc1ccccc1-2,15.1
20,O=C(Nc1ccc(Cl)cc1)Nc1ccc(Br)cn1,8.2
21,COC(=O)c1ccc(CO/N=C(\NC(C)=O)c2nonc2NC(C)=O)cc1,11.1
22,CCN(CC)CCCNC(=O)c1cc2c(=O)n(C)c3ccccc3c2n1C,2.21

row,Structure (SMILES),"hERG current change (%, negative = inhibition) at 1uM [%]"
1,O=C(CNC(=O)c1cccs1)c1ccc(Cl)cc1,13.2
2,CC(CP(=O)(O)O)NC(=O)Cc1ccccc1 (stereo not shown),14.2
3,Clc1ccc(CNc2cnccn2)cc1,15.7
4,CCOc1ccc(CC2c3cc(OCC)c(OCC)cc3CCN2C(=O)c2cc(OC)c(OC)c(OC)c2)cc1OCC (stereo not shown),4.1
5,CCOC(=O)c1ccc(N2C(=O)CC(N3CCN(Cc4ccccc4)CC3)C2=O)cc1 (stereo not shown),-8.05
6,CCOc1ccc(Oc2c(/C=N/NC(N)=O)c(C)nn2-c2ccccc2)cc1,8.08
7,Fc1ccccc1-c1csc(=Nc2cccnc2)n1CC1CCCO1 (stereo not shown),-0.0483
8,O=C(c1ccc(F)cc1)C1CCN(C(=O)c2ccccc2)CC1,9.16
9,Cc1ccc(OCC(O)CN2C(=O)NC(C)(C)C2=O)cc1 (stereo not shown),8.66
10,CCOC(=O)C1CN(S(=O)(=O)c2cccc(C(F)(F)F)c2)c2cc(CC(=O)OC)ccc2O1 (stereo not shown),11.5
11,CSc1ccccc1NC(=O)C1CCN(S(C)(=O)=O)CC1,9.28
12,N#CC1(NC(=O)COC(=O)c2cccc(-n3cnnn3)c2)CCCCC1,12
13,CC(NC(=O)/C(=C/c1ccc2c(c1)OCO2)NC(=O)c1cccc([N+](=O)[O-])c1)C(=O)O (stereo not shown),13.6
14,CCC(C(=O)Nc1cnccn1)c1ccccc1 (stereo not shown),0.837
15,O=S(=O)(CC(O)COc1ccccc1Cl)c1ccccc1 (stereo not shown),11.2
16,CC1CCCCN1Cc1c(O)ccc2c(=O)c(-c3ccc(Cl)cc3)coc12 (stereo not shown),-32
17,CCC1CCc2[nH]nc(C(=O)O)c2C1 (stereo not shown),5.05
18,CC(=O)N1CCc2cc(S(=O)(=O)N3c4ccccc4CC3C)ccc21 (stereo not shown),-3.37
19,Cl.O=C(CN1C2=NCCN2c2ccccc21)c1ccco1,-11.9
20,CC(=O)N1CC[n+]2c(-c3ccc(Cl)cc3)csc21.[Br-],8.12
21,CC1(C)OC(=O)C(=CNc2cccc(C(=O)O)c2)C(=O)O1,15.1
22,CCC(C)NC(=O)c1cn(C)c(=O)c2cc(OC)c(OC)cc12 (stereo not shown),4.58

# — paper PMC4336329 (PLoS ONE, 2015)
